# Whole data set: some 2,900 compounds, median “NF-kB SEAP reporter activity, fold change vs agonist alone” near 0.99, cut for the highest 2% near 2.6. Some of the results follow.
# Legend:
# [1] = system: RAW-Dual; experiment: NF-kB SEAP reporter activity, fold change vs agonist alone; cytotoxicity flag (confluency mask): cytotoxic (confluency <70% of control); higher = enhanced NF-kB activity
# In short: (§1)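 Library stock was pin-tooled at 50 nL into 384-well plates of RAW-Dual macrophages (50,000 cells/well, DMEM), followed 1 h later by a PRR agonist, and the cells were kept at 37 °C, 5% CO2. Supernatant collected after 20 hours was read for IRF by QuantiLuc luminescence and for NF-κB by QuantiBlue absorbance at 620 nm. Reporter activity is fold change over agonist-alone wells, and a well counted as cytotoxic when its IncuCyte confluency was below 70% of agonist controls in both mask sets.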
# [2] = system: RAW-Dual; experiment: NF-kB SEAP reporter activity, fold change vs agonist alone; higher = enhanced NF-kB activity
# In short: as §1
# [3] = system: RAW-Dual; experiment: NF-kB SEAP reporter activity, fold change vs agonist alone; cytotoxicity flag (confluency mask): not cytotoxic; higher = enhanced NF-kB activity
# In short: as §1
# [4] = agonist: ODN 1826 (TLR9) 0.5 ug/mL
# [5] = agonist: Pam2CSK4 (TLR2/6) 0.1 ug/mL
# [6] = agonist: Pam3CSK4 (TLR2/1) 0.1 ug/mL
# [7] = library stock concentration (final ~1000-fold dilution): 10 mM, cytotoxicity flag (confluency mask): cytotoxic (confluency <70% of control), agonist: Imiquimod (TLR7) […]
# [8] = library stock concentration (final ~1000-fold dilution): 10 mM, cytotoxicity flag (confluency mask): cytotoxic (confluency <70% of control), agonist: MPLA (TLR4) […]
# [9] = library stock concentration (final ~1000-fold dilution): 10 mM, cytotoxicity flag (confluency mask): not cytotoxic, agonist: Imiquimod (TLR7) […]
# [10] = library stock concentration (final ~1000-fold dilution): 10 mM, cytotoxicity flag (confluency mask): not cytotoxic, agonist: MPLA (TLR4) […]
structure (smiles),measurement,setting,value
CC(C)=CCc1c(O)ccc(C(=O)/C=C/c2ccc(O)cc2)c1O (library stock concentration (final ~1000-fold dilution): 10 mM),NF-kB SEAP reporter activity,[1]; agonist: LPS (TLR4) 0.1 ug/mL,0.34
same,NF-kB SEAP reporter activity,[1]; [4],0.583
same,NF-kB SEAP reporter activity,[1]; [5],0.249
same,NF-kB SEAP reporter activity,[1]; [6],0.236
CC(C)=CCc1c(O)ccc(C(=O)/C=C/c2ccc(O)cc2)c1O,NF-kB SEAP reporter activity,[2]; [7],0.43
same,NF-kB SEAP reporter activity,[2]; [8],0.986
NC(CSCCB(O)O)C(=O)O (centres undefined),NF-kB SEAP reporter activity,[2]; [9],0.946
same,NF-kB SEAP reporter activity,[2]; [10],0.962
NC(CSCCB(O)O)C(=O)O (centres undefined) (library stock concentration (final ~1000-fold dilution): 10 mM),NF-kB SEAP reporter activity,[3]; agonist: LPS (TLR4) 0.1 ug/mL,0.97
same,NF-kB SEAP reporter activity,[3]; [4],0.912
same,NF-kB SEAP reporter activity,[3]; [5],0.827
same,NF-kB SEAP reporter activity,[3]; [6],1.06
CN1CC(=O)N2C(Cc3c([nH]c4ccccc34)C2c2ccc3c(c2)OCO3)C1=O (centres undefined),NF-kB SEAP reporter activity,[2]; [9],0.955
same,NF-kB SEAP reporter activity,[2]; [10],0.984
CN1CC(=O)N2C(Cc3c([nH]c4ccccc34)C2c2ccc3c(c2)OCO3)C1=O (centres undefined) (library stock concentration (final ~1000-fold dilution): 10 mM),NF-kB SEAP reporter activity,[3]; agonist: LPS (TLR4) 0.1 ug/mL,1.17
same,NF-kB SEAP reporter activity,[3]; [4],1.18
same,NF-kB SEAP reporter activity,[3]; [5],1.13
same,NF-kB SEAP reporter activity,[3]; [6],1.11
CS(=O)(=O)O.Cc1c(O)cccc1C(=O)NC(CSc1ccccc1)C(O)CN1CC2CCCCC2CC1C(=O)NC(C)(C)C (centres undefined) (library stock concentration (final ~1000-fold dilution): 10 mM),NF-kB SEAP reporter activity,[3]; agonist: LPS (TLR4) 0.1 ug/mL,4.08
CN1C2CCCC1CC(NC(=O)c1nn(C)c3ccccc13)C2.Cl (centres undefined) (library stock concentration (final ~1000-fold dilution): 10 mM water),NF-kB SEAP reporter activity,[3]; agonist: LPS (TLR4) 0.1 ug/mL,1.2
same,NF-kB SEAP reporter activity,[3]; [4],1.06
same,NF-kB SEAP reporter activity,[3]; [5],1.04
same,NF-kB SEAP reporter activity,[3]; [6],1.11
CN1C2CCCC1CC(NC(=O)c1nn(C)c3ccccc13)C2.Cl (centres undefined),NF-kB SEAP reporter activity,"[2]; library stock concentration (final ~1000-fold dilution): 10 mM water, cytotoxicity flag (confluency mask): not cytotoxic, agonist: Imiquimod (TLR7) […]",0.874
same,NF-kB SEAP reporter activity,"[2]; library stock concentration (final ~1000-fold dilution): 10 mM water, cytotoxicity flag (confluency mask): not cytotoxic, agonist: MPLA (TLR4) […]",1
NC(=O)Nc1cc(-c2cccc(F)c2)sc1C(=O)NC1CCCNC1 (centres undefined) (library stock concentration (final ~1000-fold dilution): 10 mM),NF-kB SEAP reporter activity,[3]; agonist: LPS (TLR4) 0.1 ug/mL,0.239
same,NF-kB SEAP reporter activity,[3]; [4],0.255
same,NF-kB SEAP reporter activity,[3]; [5],0.0825
same,NF-kB SEAP reporter activity,[3]; [6],0.16
NC(=O)Nc1cc(-c2cccc(F)c2)sc1C(=O)NC1CCCNC1 (centres undefined),NF-kB SEAP reporter activity,[2]; [9],0.256
same,NF-kB SEAP reporter activity,[2]; [10],0.401
Cl.OC(CNCC(O)C1CCc2cc(F)ccc2O1)C1CCc2cc(F)ccc2O1 (centres undefined),NF-kB SEAP reporter activity,[2]; [7],1.62
same,NF-kB SEAP reporter activity,[2]; [8],1.12
Cl.OC(CNCC(O)C1CCc2cc(F)ccc2O1)C1CCc2cc(F)ccc2O1 (centres undefined) (library stock concentration (final ~1000-fold dilution): 10 mM),NF-kB SEAP reporter activity,[1]; agonist: LPS (TLR4) 0.1 ug/mL,0.949
same,NF-kB SEAP reporter activity,[1]; [4],0.412
same,NF-kB SEAP reporter activity,[1]; [5],0.203
same,NF-kB SEAP reporter activity,[1]; [6],0.408
Cc1c(NC(=O)OCC2COCCN2)cn2ncnc(Nc3ccc4c(cnn4Cc4cccc(F)c4)c3)c12 (centres undefined) (library stock concentration (final ~1000-fold dilution): 10 mM),NF-kB SEAP reporter activity,[3]; agonist: LPS (TLR4) 0.1 ug/mL,1.49
same,NF-kB SEAP reporter activity,[3]; [4],0.194
same,NF-kB SEAP reporter activity,[3]; [5],1
same,NF-kB SEAP reporter activity,[3]; [6],0.839
Cc1c(NC(=O)OCC2COCCN2)cn2ncnc(Nc3ccc4c(cnn4Cc4cccc(F)c4)c3)c12 (centres undefined),NF-kB SEAP reporter activity,[2]; [9],1.99
same,NF-kB SEAP reporter activity,[2]; [10],1
CC(C)NCC(O)COc1cccc2ccccc12.Cl (centres undefined),NF-kB SEAP reporter activity,[2]; [9],1.07
same,NF-kB SEAP reporter activity,[2]; [10],1.04
CC(C)NCC(O)COc1cccc2ccccc12.Cl (centres undefined) (library stock concentration (final ~1000-fold dilution): 10 mM),NF-kB SEAP reporter activity,[3]; agonist: LPS (TLR4) 0.1 ug/mL,0.913
same,NF-kB SEAP reporter activity,[3]; [4],0.94
same,NF-kB SEAP reporter activity,[3]; [5],0.822
same,NF-kB SEAP reporter activity,[3]; [6],1.08
